# Where “and” joins values, the source holds several entries; their conditions need not be identical. Equal entries are not always repeated. Out of some 410,000 compounds screened, about 6,400 (1.6%) were called active. This list was built around the results that the source calls inconclusive (neither active nor inactive); the mix of calls is not that of the screen. The call rests on the fitted dose curve; in most records, active means well fitted inhibition curve with a large enough effect; inconclusive means small, poorly fitted or top-dose-only effect; inactive means no such curve, though single readings can be large or run the other way. Potencies of inconclusive entries are doubtful fits and often do not repeat.
# Target: Glucagon-like peptide 1 receptor (Homo sapiens) (UniProt P43220)
# Assay: qHTS of GLP-1 Receptor Inverse Agonists (Inhibition Mode); further: nearly all actives have a fitted effect of over 55% in size
# Settings: HEK293 GLP-1R CRE-luciferase, luminescence, 24 h, GLP-1R form is constitutively active; series mostly up to 38.3 µM
# How it was run: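 Stable HEK293 clone (constitutively active GLP-1R + cAMP-response luciferase); 200 cells/uL plated, 12 h pre-culture, compound 24 hr, 37 deg C/5% CO2; detection reagent 12 min RT; luminescence.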
# Potency means the concentration at half of the fitted maximal effect; tags describe the fitted curve by direction and shape.
# Sequence of UniProt P43220 (P43220 whole entry, looked up): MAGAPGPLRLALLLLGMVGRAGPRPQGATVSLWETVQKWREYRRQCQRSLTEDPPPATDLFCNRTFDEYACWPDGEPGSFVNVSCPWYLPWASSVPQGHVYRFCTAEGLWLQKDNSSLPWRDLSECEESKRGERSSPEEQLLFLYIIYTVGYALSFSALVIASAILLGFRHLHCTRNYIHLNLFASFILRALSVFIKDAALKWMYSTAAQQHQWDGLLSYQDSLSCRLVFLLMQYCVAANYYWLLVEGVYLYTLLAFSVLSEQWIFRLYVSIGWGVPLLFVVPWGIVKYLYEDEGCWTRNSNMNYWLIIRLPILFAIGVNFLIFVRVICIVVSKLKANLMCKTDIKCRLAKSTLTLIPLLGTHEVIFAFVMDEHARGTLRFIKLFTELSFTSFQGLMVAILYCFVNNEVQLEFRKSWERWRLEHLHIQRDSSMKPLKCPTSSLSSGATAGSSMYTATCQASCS
row,Compound,Potency
1,CSc1nn(Cc2cccc(F)c2)c(N(C(C)=O)C(C)=O)c1S(=O)(=O)c1ccccc1,"inconclusive: 28.2 µM [inhibitor, single point]"
2,O=C(COC(=O)c1ccc(F)cc1Cl)NC(=O)NC1CCCC1,"inconclusive: 17.8 µM [inhibitor, single point]"
3,CCCCSC1=C(C#N)C(c2ccccc2C)CC(=O)N1 (stereo unspecified),"inconclusive: 28.2 µM [inhibitor, single point]"
4,CC(C)c1ccc(/C=N/NC(=O)c2ccc(-n3cnnn3)cc2)cc1,"inconclusive: 28.2 µM [inhibitor, single point]"
5,Cc1cc(N2CC(C(=O)Nc3nccs3)CC2=O)ccc1C(C)C (stereo unspecified),"inconclusive: 28.2 µM [inhibitor, single point]"
6,Cc1cc(N2CCN(c3ccccn3)CC2)n2cc(-c3ccccc3)nc2n1,inactive
7,O=C(NCc1ccccc1)C1=C[C@@H](c2ccccc2)C[C@@H](OCCCCO)O1,inactive
8,COc1ccc(Cl)cc1CN1C(=O)C(Cc2ccccc2)ON=C1C (stereo unspecified),"inconclusive: 28.2 µM [inhibitor, single point]"
9,CN(CCOc1ccc(-c2ccn(S(=O)(=O)c3c(Cl)cccc3Cl)n2)cc1)c1ccccn1,"inconclusive: 7.94 µM [inhibitor, partial curve, poor fit]"
10,COc1ccc(CCNc2oc(COc3ccc(Cl)cc3)nc2C#N)cc1OC,"inconclusive: 3.55 µM [inhibitor, single point]"
11,COc1ccccc1CNC(=O)C(=O)NCC(c1ccc2c(c1)OCO2)N1CCOCC1 (stereo unspecified),inactive
12,Cc1cccc([C@@H]2[C@@H]3C(=O)N(Cc4ccccc4)C(=O)[C@@H]3[C@]3(C)C(=O)N(c4ccc(Br)cc4)C(=O)N23)c1,"inconclusive: 17.8 µM [inhibitor, single point]"
13,COC(=O)c1ccc(OCC(O)CN(CCO)CC(O)Cn2ccc3ccccc32)cc1 (stereo unspecified),"inconclusive: 11.2 µM [inhibitor, single point]"
14,COc1ccc(CCNC(=O)Nc2cc(F)c(F)cc2Cl)cc1OC,"inconclusive: 12.6 µM [inhibitor, single point]"
15,CC(C)=CCc1c(O)cc(O)c2c1OC(c1ccc(O)cc1)CC2=O (stereo unspecified),"inconclusive: 22.4 µM [inhibitor, single point]"
16,Cc1nc2cc(NC(=O)c3ccc(Br)s3)ccc2s1,"inconclusive: 10 µM [inhibitor, single point]"
17,CCc1ccc(CN2CCc3nc(Nc4ccc5c(c4)OCCO5)ncc3C2)cc1,"inconclusive: 11.2 µM [inhibitor, partial curve, poor fit]"
18,CCCCOc1ccc(C(=O)N2CCN(c3ccc(N4CCOCC4)nn3)CC2)cc1,"inconclusive: 28.2 µM [inhibitor, single point]"
19,CCc1ccc(-c2nc(SCC(=O)NCCOC)c(-c3ccc(C)cc3)[nH]2)cc1,"inconclusive: 17.8 µM [inhibitor, single point]"
20,CCc1ccc(CNc2nc3nc(C)c(Cc4ccccc4)c(=O)n3[nH]2)cc1,inactive
21,O=C(Nc1cccc(O)c1)c1noc2c1CCCCC2,inactive

row,Compound,Potency
1,Cc1cc(NCC(c2ccccc2)c2ccccc2)n2ncnc2n1,"inconclusive: 31.6 µM [inhibitor, single point]"
2,CSc1ccc(S(=O)(=O)N2CCC(C(=O)N3CCc4ccccc4C3)CC2)cc1,"inconclusive: 10 µM [inhibitor, partial curve, poor fit]"
3,CC[C@@H]1C(c2ccccc2)=NN(c2ccccc2)[C@H]1C(=O)N1CCOC1=O,"inconclusive: 12.6 µM [inhibitor, single point]"
4,CC(=O)Nc1ccc(NC(=O)C(C)OC(=O)CCCOc2ccc(Cl)cc2C)cc1 (stereo unspecified),"inconclusive: 14.1 µM [inhibitor, single point]"
5,Cc1ccc2ncc3c(-c4ccccc4)nn(CC(=O)NC4CCCCC4)c3c2c1,inactive
6,CC(C)(C)C1=CC(=O)C(=O)C(C(C)(C)C)=C1,"inconclusive: 12.6 µM [inhibitor, single point]"
7,COc1c(C)cc(Br)cc1C(=O)Nc1ccc(Cc2ccncc2)cc1,active: 10 µM
8,O=C(c1ccc(Cl)c(S(=O)(=O)N2CCCCC2)c1)N1CCN(Cc2ccccc2)CC1,"inconclusive: 11.2 µM [inhibitor, partial curve, poor fit]"
9,COc1ccc(NC(=O)CSC2=Nc3ccccc3C3=NC(CCC(=O)NCc4ccco4)C(=O)N23)cc1 (stereo unspecified),inactive
10,CCOC(=O)c1ccc(CNC(=O)c2cc(COc3ccccc3SC)on2)o1,"inconclusive: 11.2 µM [inhibitor, single point]"
11,O=C(CCNC(=O)C1CCN(S(=O)(=O)c2ccccc2)CC1)NCc1ccc(Cl)cc1Cl,"inconclusive: 28.2 µM [inhibitor, single point]"
12,CCOC(=O)c1ccc(NC(=O)C2CCCN(c3ncnc4onc(C)c34)C2)cc1 (stereo unspecified),inactive
13,Cc1ccc(Nc2c([N+](=O)[O-])c(=O)oc3ccccc23)cc1C,"inconclusive: 28.2 µM [inhibitor, single point]"
14,Cc1nc2ccc(S(=O)(=O)CCC(=O)Nc3ccccc3C)cc2s1,inactive
15,C=CCn1c(SCc2c(C)noc2C)nnc1C1COc2ccccc2O1 (stereo unspecified),"inconclusive: 28.2 µM [inhibitor, single point]"
16,CCCCC#Cc1ccc(C(=O)NNC(=O)Nc2ccccc2)o1,"inconclusive: 31.6 µM [inhibitor, single point]"
17,COc1ccc2cc(CNc3ccc(OC)c(OC)c3)c(=O)n(CC(=O)Nc3ccc(C)cc3)c2c1,inactive
18,Cc1ccc(CN2CC(C(=O)NC(c3nc4ccccc4[nH]3)C(C)C)CC2=O)cc1 (stereo unspecified),"inconclusive: 6.31 µM [inhibitor, partial curve, poor fit]"
19,Cc1ccc(Cl)cc1NS(=O)(=O)c1ccccc1,"inconclusive: 12.6 µM [inhibitor, partial curve, poor fit]"
20,O=C(NC1CCCCC1)C(c1ccccc1F)n1c(=O)c(-c2cc3ccccc3[nH]2)nc2ccccc21 (stereo unspecified),"inconclusive: 7.08 µM [inhibitor, partial curve, poor fit]"
21,CSc1ccc(S(=O)(=O)N2CCN(Cc3ccc4c(c3)OCO4)CC2)cc1,"inconclusive: 28.2 µM [inhibitor, single point]"

row,Compound,Potency
1,COc1ccccc1/C=C1\Cc2ccccc2C1=O,"inconclusive: 10 µM [inhibitor, partial curve, poor fit]"
2,CC(C)(C)N(NC(=O)Nc1ccc(Cl)c(Cl)c1)C(=O)c1ccccc1,"inconclusive: 5.62 µM [inhibitor, partial curve, poor fit]"
3,O=C(N/N=C/c1ccccc1O)c1ccncc1,"inconclusive: 22.4 µM [inhibitor, partial curve, poor fit]"
4,O=C(Nc1ccccc1)OCCNC(=O)c1cccc(Br)c1,"inconclusive: 10 µM [inhibitor, partial curve, poor fit]"
5,CC(C)(C)c1cc(C(=O)NNC(=O)Nc2ccccc2)n(Cc2ccccc2)n1,"inconclusive: 10 µM [inhibitor, partial curve, poor fit]"
6,CC(CN1CCC(n2nccc2NC(=O)c2ccccc2Cl)CC1)c1ccccc1 (stereo unspecified),"inconclusive: 31.6 µM [inhibitor, partial curve, poor fit]"
7,O=C(CN1C(=O)C2C3C=CC(C3)C2C1=O)Nc1cccc2c1CCCC2 (stereo unspecified),"inconclusive: 17.8 µM [inhibitor, partial curve, poor fit]"
8,COc1ccc(NC(=O)c2sccc2SCc2cccc(C(F)(F)F)c2)cc1,"inconclusive: 28.2 µM [inhibitor, single point]"
9,Cc1nc(SC2CC(=O)N(c3cc(Cl)cc(Cl)c3)C2=O)nc2c1CCCC2 (stereo unspecified),"inconclusive: 10 µM [inhibitor, partial curve, poor fit]"
10,N#Cc1ccc(CSc2ccc(S(=O)(=O)N3CCCC3)cn2)cc1,"inconclusive: 31.6 µM [inhibitor, single point]"
11,O=C(NCc1ccccc1)C1C(c2ccc3c(c2)OCO3)=Nc2ccccc2N1C(=O)c1cccc(C(F)(F)F)c1 (stereo unspecified),"inconclusive: 28.2 µM [inhibitor, single point]"
12,Cc1ccc(C)c(S(=O)(=O)Nc2ccc3sc(C)nc3c2)c1,"inconclusive: 28.2 µM [inhibitor, single point]"
13,Cc1cccc(NC(=O)CSc2nc(C)c(Cc3ccccc3)c(=O)[nH]2)c1,"inconclusive: 12.6 µM [inhibitor, single point] and inconclusive: 11.2 µM [inhibitor, single point]"
14,CC1=CC(C)(C)N(S(=O)(=O)c2ccc(C)cc2)c2ccc(C)cc21,"inconclusive: 3.98 µM [inhibitor, full curve, poor fit]"
15,O=C(OC(c1ccc(NS(=O)(=O)c2ccccc2)cc1)(C(F)(F)F)C(F)(F)F)c1ccccc1,"inconclusive: 14.1 µM [inhibitor, partial curve, poor fit]"
16,CCOc1ccc(C(=O)N/N=C(/C)C2C(=O)c3ccccc3C2=O)cc1,"inconclusive: 1.41 µM [inhibitor, full curve, poor fit]"
17,COc1ccc(NC(=O)C23CCC(C2)C(C)(C)C3=O)cc1 (stereo unspecified),"inconclusive: 5.62 µM [inhibitor, partial curve]"
18,Cc1ccccc1NC(=O)c1ccc(NC(=O)C2CCCO2)cc1 (stereo unspecified),inactive
19,CCOc1ccc(NC(=O)CN(C)C(=O)C2CCN(c3ncnc4sc(C)c(C)c34)CC2)cc1OCC,"inconclusive: 11.2 µM [inhibitor, partial curve, poor fit]"
